Measured values published in the supplement of paper PMC11417369.
± gives the standard deviation of the averaged measurements. The list shows a part of the results.

Test system: PfAP2-EXP AP2 domain (GST-tagged)
Assay: gcPBM binding intensity (ln(normalized median fluorescence intensity)); higher = stronger DNA binding
Procedure, shortened: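 An Agilent 4 × 180k array of primer-extended double-stranded 36-bp intergenic genomic probes, with negative controls, was incubated for 1 h with GST-tagged P. falciparum DNA-binding domains expressed in E. coli. Alexa488 anti-GST antibody detected bound protein, scanned at 488 nm. Binding intensity is the highest Masliner-normalised natural-log median intensity across replicate spots of either probe orientation.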

Sequence	gcPBM binding intensity (ln)
AGACATATAATATATACACACATATATATATATATA [CACACA_site1066]	10 ± 0.61
CGTTTCCCCAATGGTTGTACAATATATATATATATA [XGTACX_site8641]	10.1 ± 0.31
ATACATATAATATATGCATGTACCAATCAAATATAT [TGCATGCA_site192]	8.71 ± 0.33
TTATTCTAGTAGTGTGTGCGCATGGACAATGCAATA	8.86 ± 0.28
TATATATCGTTATATACACACATGTATATAAAAAAT [CACACA_site7501]	8.46 ± 0.27
ATATTTTATTTATATACACACACATATATATATTAT [CACACA_site8177]	8.79 ± 0.47
CTTTATATAAAATAAAGTACATAAATTATGATATAT [XGTACX_site3699]	8.59 ± 0.4
TTCTTTATATACAAACCAAAATATTATGTATAATAA [CACACA_negctrl_site15]	8.26 ± 0.49
TTATTATATATTTTATTTATTAATAGTATATATTAT [TGCATGCA_negctrl_site155]	8.11 ± 0.27
TAATTTTTTTTTATGATACACACTTGGATAATTAAA [CACACA_site562]	8.19 ± 0.39
AAGGAAATATAATATACACACATAAGTGTACTTATA [CACACA_site4030]	8.23 ± 0.22
GAAAAATTAAAAATAACACACACATATATATATTTA [CACACA_site8896]	8.46 ± 0.44
TAATAAAGTGAATAATGTACATTTTATTTATTATAT [XGTACX_site6614]	8.24 ± 0.34
ATTATATATCCCTATTCACACATGTATTATATAAAT [CACACA_site5486]	8.97 ± 0.46
TCAGTAATACTTGAATGTACTTATATTGTTTGTTTG [XGTACX_site6449]	8.41 ± 0.32
CCTATATTAAAACAAGCACACAATCGCATAATATCC [CACACA_site9052]	8.71 ± 0.57
TTAACATATTTGTTAGTGCATTTTGATATTACACAT [GTGCAC_site9978]	8.6 ± 0.33
AAAAAAATTAAATGTACACACACCTTAAACAATGTC [CACACA_site1855]	8.48 ± 0.36
CTAATATCTGTATGCACACACAATAAATACATATTT [CACACA_site5797]	8.52 ± 0.31
ATTTATTTTATATGTTGTACAAACATTTTAAAACAT [XGTACX_site6919]	8.65 ± 0.42
TCTTTTTCTTGACGAGTGCAAAAATTGTGTTTGAAA	8.92 ± 0.028
ATAAATAAATAAATAAATAAATAAATAAATATATAT [CACACA_negctrl_site1728]	8.42 ± 0.21

Sequence	gcPBM binding intensity (ln)
TTTTTTTAAAGAATTATCATAAAATGATTGCATCAT [XGTACX_negctrl_site141]	7.9 ± 0.4
AATGCCTTGTTGAGGTGTACTGAATGTTATTTTAAT [XGTACX_site3255]	8.28 ± 0.45
ATCAACATCTAACATTGTACATGTGATGTGTAAAAG [XGTACX_site547]	8.49 ± 0.33
ATATTTGCCCAAGATAGTACATATATATATATATAT [XGTACX_site7756]	10.2 ± 0.24
TATATATATATATATTGTACATATATTATTATATAT [XGTACX_site7447]	10.2 ± 0.57
AAATAGCCAAAAATCATGCACACCTAAAAAAAAAAA [CACACA_site2572]	8.57 ± 0.42
ATATTGGAGCACAACACACACAAGTATATATATGGA [CACACA_site1546]	8.8 ± 0.47
CACATACAGACATACACACACATATATATTAATATA [CACACA_site546]	8.65 ± 0.49
CATACATACAAACACACACACACACCGATATATATA [CACACA_site8952]	8.8 ± 0.49
AATTCTCTTAATAAATAAACACAAATAAATAATAAA [GTGCAC_negctrl_site499]	8.47 ± 0.35
TATATAATAAAAAAAAGTACTTGGACAATATTATTT [XGTACX_site2802]	8.68 ± 0.42
TTAATTTACATGAACTGTACATAACATTTTTTTAAA [XGTACX_site4672]	8.38 ± 0.38
ATCAAAATATTTATATGTACATATTAAAAATATAGA [XGTACX_site725]	8.41 ± 0.33
AATGTTTTATTTTGAAGTACATTTAAGAATTTTTTA [XGTACX_site7814]	8.17 ± 0.44
TATATATGCATATACATACACACATAACACATACGT [CACACA_site3833]	8.61 ± 0.37
TTATGTTCTTTAAAACCACACACCCCCCAACCCCCC [CACACA_site8742]	10.9 ± 0.29
TATGAAATTATAATTACACACAGGAAAATAAAATGT [CACACA_site1517]	9.01 ± 0.47
ATATAATAATAAGGCACACAAATTAAAATATAAAAA [CACACA_site3710]	8.79 ± 0.35
AAATAATTTGTTGACACACACACACCCATACAGATA [CACACA_site5291]	8.93 ± 0.43
AAGGATCACAGACAAACACACATATATATATATATA [CACACA_site4469]	10.2 ± 0.37
CATTATGTCGTAAATACACACATACATATACATACA [CACACA_site8383]	8.62 ± 0.51
TTTTGACCATATCTGTTGCACTTTTGTGCTATTCGA	8.73 ± 0.28
